In patent publication US20260091062A1 (Hoffmann-La Roche, published 2026):

Assays:
[1] = target: P329G-CAR (CD28): anti-P329G VH3VL1 scFv - CD8a stalk - TMD - CD28 ICD - CD3zeta ICD; assay: cell-based or functional assay
Target sequence (chain, as listed by the source P329G P329G P329G P329G): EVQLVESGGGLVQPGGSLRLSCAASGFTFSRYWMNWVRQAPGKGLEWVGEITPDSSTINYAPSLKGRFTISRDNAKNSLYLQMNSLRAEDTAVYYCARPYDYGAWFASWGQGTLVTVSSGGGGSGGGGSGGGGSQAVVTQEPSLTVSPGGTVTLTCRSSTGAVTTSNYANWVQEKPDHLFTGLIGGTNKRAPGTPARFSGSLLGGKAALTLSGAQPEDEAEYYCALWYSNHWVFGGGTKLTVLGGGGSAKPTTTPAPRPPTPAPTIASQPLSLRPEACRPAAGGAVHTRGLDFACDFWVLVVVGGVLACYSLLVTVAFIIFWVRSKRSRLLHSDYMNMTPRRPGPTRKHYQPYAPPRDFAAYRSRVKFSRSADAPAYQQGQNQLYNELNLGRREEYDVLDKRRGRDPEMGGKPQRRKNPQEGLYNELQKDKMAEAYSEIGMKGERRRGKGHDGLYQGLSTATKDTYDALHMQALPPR

[2] = target: P329G-tag (IL15Rα membrane anchor): anti-P329G VH3VL1 scFv - IL15Ra stalk/TMD/ICD; assay: cell-based or functional assay
Target sequence (chain, as listed by the source P329G P329G P329G P329G): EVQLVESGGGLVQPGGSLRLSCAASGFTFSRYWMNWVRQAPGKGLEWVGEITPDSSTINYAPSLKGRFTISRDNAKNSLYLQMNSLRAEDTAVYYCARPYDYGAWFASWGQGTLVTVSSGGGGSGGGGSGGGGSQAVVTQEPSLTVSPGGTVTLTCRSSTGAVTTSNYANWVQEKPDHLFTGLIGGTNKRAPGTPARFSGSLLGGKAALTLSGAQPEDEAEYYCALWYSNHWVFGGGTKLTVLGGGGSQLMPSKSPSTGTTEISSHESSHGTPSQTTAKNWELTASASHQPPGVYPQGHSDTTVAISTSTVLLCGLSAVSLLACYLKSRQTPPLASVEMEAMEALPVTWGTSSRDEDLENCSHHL

| pSTAT5 cis-targeting window (GFP+ vs GFP- cells) [1] | pSTAT5 cis-targeting effect (GFP- vs GFP+ cells) [2] | pSTAT5 cis-targeting window (GFP+ vs GFP- cells), PD-1 low T cells [2] | pSTAT5 window (GFP+ vs GFP- cells), not reactivated PD-1 low T cells [2] | Binder |
| --- | --- | --- | --- | --- |
| ~100 fold | 75 fold | ~100 fold | ~100 fold | PD1-IL2v (PD-1-targeted IgG-IL-2 qm fusion protein, Fc P329G LALA) (other) heavy 1: EVQLLESGGGLVQPGGSLRLSCAASGFSFSSYTMSWVRQAPGKGLEWVATISGGGRDIYYPDSVKGRFTISRDNSKNTLYLQMNSLRAEDTAVYYCVLLTGRVYFALDSWGQGTLVTVSSASTKGPSVFPLAPSSKSTSGGTAALGCLVKDYFPEPVTVSWNSGALTSGVHTFPAVLQSSGLYSLSSVVTVPSSSLGTQTYICNVNHKPSNTKVDKKV[human IgG1 Fc with changes not written out]GGGGSGGGGSGGGGSAPASSSTKKTQLQLEHLLLDLQMILNGINNYKNPKLTRMLTAKFAMPKKATELKHLQCLEEELKPLEEVLNGAQSKNFHLRPRDLISNINVIVLELKGSETTFMCEYADETATIVEFLNRWITFAQSIISTLT heavy 2: EVQLLESGGGLVQPGGSLRLSCAASGFSFSSYTMSWVRQAPGKGLEWVATISGGGRDIYYPDSVKGRFTISRDNSKNTLYLQMNSLRAEDTAVYYCVLLTGRVYFALDSWGQGTLVTVSSASTKGPSVFPLAPSSKSTSGGTAALGCLVKDYFPEPVTVSWNSGALTSGVHTFPAVLQSSGLYSLSSVVTVPSSSLGTQTYICNVNHKPSNTKVDKKVEPKSCDKTHTCPPCPAPEAAGGPSVFLFPPKPKDTLMISRTPEVTCVVVDVSHEDPEVKFNWYVDGVEVHNAKTKPREEQYNSTYRVVSVLTVLHQDWLNGKEYKCKVSNKALGAPIEKTISKAKGQPREPQVCTLPPSRDELTKNQVSLSCAVKGFYPSDIAVEWESNGQPENNYKTTPPVLDSDGSFFLVSKLTVDKSRWQQGNVFSCSVMHEALHNHYTQKSLSLSP light: DIVMTQSPDSLAVSLGERATINCKASESVDTSDNSFIHWYQQKPGQSPKLLIYRSSTLESGVPDRFSGSGSGTDFTLTISSLQAEDVAVYYCQQNYDVPWTFGQGTKVEIKRTVAAPSVFIFPPSDEQLKSGTASVVCLLNNFYPREAKVQWKVDNALQSGNSQESVTEQDSKDSTYSLSSTLTLSKADYEKHKVYACEVTHQGLSSPVTKSFNRGEC |
| ~800 fold | – | – | – | PD1-IL2vQ126T (other) heavy 1: EVQLLESGGGLVQPGGSLRLSCAASGFSFSSYTMSWVRQAPGKGLEWVATISGGGRDIYYPDSVKGRFTISRDNSKNTLYLQMNSLRAEDTAVYYCVLLTGRVYFALDSWGQGTLVTVSSASTKGPSVFPLAPSSKSTSGGTAALGCLVKDYFPEPVTVSWNSGALTSGVHTFPAVLQSSGLYSLSSVVTVPSSSLGTQTYICNVNHKPSNTKVDKKV[human IgG1 Fc with changes not written out]GGGGSGGGGSGGGGSAPASSSTKKTQLQLEHLLLDLQMILNGINNYKNPKLTRMLTAKFAMPKKATELKHLQCLEEELKPLEEVLNGAQSKNFHLRPRDLISNINVIVLELKGSETTFMCEYADETATIVEFLNRWITFATSIISTLT heavy 2: EVQLLESGGGLVQPGGSLRLSCAASGFSFSSYTMSWVRQAPGKGLEWVATISGGGRDIYYPDSVKGRFTISRDNSKNTLYLQMNSLRAEDTAVYYCVLLTGRVYFALDSWGQGTLVTVSSASTKGPSVFPLAPSSKSTSGGTAALGCLVKDYFPEPVTVSWNSGALTSGVHTFPAVLQSSGLYSLSSVVTVPSSSLGTQTYICNVNHKPSNTKVDKKVEPKSCDKTHTCPPCPAPEAAGGPSVFLFPPKPKDTLMISRTPEVTCVVVDVSHEDPEVKFNWYVDGVEVHNAKTKPREEQYNSTYRVVSVLTVLHQDWLNGKEYKCKVSNKALGAPIEKTISKAKGQPREPQVCTLPPSRDELTKNQVSLSCAVKGFYPSDIAVEWESNGQPENNYKTTPPVLDSDGSFFLVSKLTVDKSRWQQGNVFSCSVMHEALHNHYTQKSLSLSP light: DIVMTQSPDSLAVSLGERATINCKASESVDTSDNSFIHWYQQKPGQSPKLLIYRSSTLESGVPDRFSGSGSGTDFTLTISSLQAEDVAVYYCQQNYDVPWTFGQGTKVEIKRTVAAPSVFIFPPSDEQLKSGTASVVCLLNNFYPREAKVQWKVDNALQSGNSQESVTEQDSKDSTYSLSSTLTLSKADYEKHKVYACEVTHQGLSSPVTKSFNRGEC |
